The supplement of paper PMC12217912
This is one part of the list. The full chains were built here from the parent and the listed change. Values near 0.05 are background.

B1: TEV protease; numbered along this chain (parent)
chain: MGESLFKGPRDYNPISSSICHLTNESDGHTTSLYGIGFGPFIITNKHLFRRNNGTLVVQSLHGVFKVKDTTTLQQHLVDGRDMIIIRMPKDFPPFPQKLKFREPQREERICLVTTNFQTKSMSSMVSDTSCTFPSGDGIFWKHWIQTKDGQCGSPLVSTRDGFIVGIHSASNFTNTNNYFTSVPKNFMELLTNQEAQQWVSGWRLNADSVLWGGHKVFMVKPEEPFQPVKEATQL

Variants of: B1
Test: raw area under fraction-flipped curve 0-4 h after induction (AUC4h, not background-subtracted), DNA-recorder readout of cleavage of the substrate (dimensionless); higher = more cleavage of the substrate by the protease variant
Settings: temperature: 34 °C; time window: 0-4 h after rhamnose induction
Protocol: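 In vivo DNA recorder in E. coli TOP10(DE3) ΔrhaA at 34 °C. Each TEVp single-site mutant (parent TEVp 0) is paired with a single-site variant of the 7-mer TEVs (canonical ENLYFQ|S). The substrate sits between flexible linkers in a Bxb1-sfGFP-TEVs-SsrA fusion, so cleavage stabilises Bxb1 and speeds flipping of a recombination array, read by NGS. The value is the raw area under the fraction-flipped curve over 0-4 h after rhamnose induction (AUC4h), with ≥20 reads per time point. It is not background-subtracted; inactive controls average about 0.047.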
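Note: Bxb1 expression induced with 0.2% (w/v) L-rhamnose at OD600 near 0.5, cultures sampled hourly, flipped fraction per protease–substrate barcode pair counted by paired-end Illumina sequencing.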

| Variant | area with substrate CNLYFQS | area with substrate DNLYFQS | area with substrate GNLYFQS | area with substrate HNLYFQS | area with substrate INLYFQS | area with substrate KNLYFQS | area with substrate LNLYFQS | area with substrate MNLYFQS | area with substrate TNLYFQS | area with substrate VNLYFQS | area with substrate WNLYFQS | area with substrate YNLYFQS | area with substrate NNLYFQS | area with substrate PNLYFQS | area with substrate FNLYFQS | area with substrate SNLYFQS | area with substrate QNLYFQS | area with substrate RNLYFQS |
| --- | --- | --- | --- | --- | --- | --- | --- | --- | --- | --- | --- | --- | --- | --- | --- | --- | --- | --- |
| P14G | 0.0865 | 0.0757 | 0.0608 | 0.055 | 0.0709 | 0.044 | 0.0577 | 0.0777 | 0.0697 | 0.0733 | 0.068 | 0.0622 | – | – | – | – | – | – |
| P14N | 0.0549 | 0.0631 | 0.0609 | 0.0387 | 0.0369 | 0.0538 | 0.0263 | 0.0697 | 0.0663 | – | 0.0687 | 0.0585 | 0.0513 | 0.0561 | – | – | – | – |
| I15H | 0.0667 | 0.0556 | – | 0.0696 | 0.0655 | – | 0.0383 | – | 0.0608 | 0.0691 | 0.0554 | 0.0683 | 0.0629 | 0.0768 | 0.0704 | – | – | – |
| S18E | 0.0664 | 0.0816 | – | 0.0756 | – | 0.0633 | 0.0581 | 0.0574 | 0.0487 | – | 0.0499 | 0.058 | – | 0.0709 | – | 0.0708 | – | – |
| S18W | 0.0718 | 0.0711 | 0.058 | 0.0801 | 0.039 | 0.065 | 0.0643 | 0.0754 | 0.0664 | 0.0447 | 0.0582 | 0.0614 | 0.0608 | 0.0767 | 0.0598 | 0.0419 | 0.035 | – |
| I19M | 0.0709 | 0.0799 | – | 0.0679 | – | 0.0817 | 0.0663 | – | 0.0645 | – | 0.0561 | 0.065 | 0.0733 | 0.0817 | 0.0594 | 0.0794 | 0.0922 | 0.053 |
| I19N | 0.0574 | 0.0528 | 0.0576 | 0.0596 | 0.0558 | 0.056 | 0.0369 | – | 0.0559 | 0.0561 | 0.049 | 0.0479 | 0.0351 | 0.0524 | 0.0516 | 0.0392 | 0.0502 | – |
| I19S | 0.0405 | 0.0791 | 0.051 | 0.0644 | – | – | – | 0.051 | 0.0583 | 0.0669 | 0.0421 | – | 0.0326 | 0.0716 | 0.023 | 0.0573 | – | – |
| C20P | 0.0464 | 0.0485 | 0.0537 | 0.0458 | 0.0317 | 0.0531 | – | 0.0471 | 0.0666 | 0.065 | 0.0482 | 0.0543 | 0.0468 | 0.0493 | 0.0355 | 0.0486 | 0.0547 | – |
| H21L | 0.0711 | 0.0678 | – | 0.062 | 0.0396 | 0.0576 | 0.0619 | 0.0745 | 0.0563 | 0.0556 | 0.0645 | 0.0609 | 0.0535 | 0.0703 | – | 0.0592 | – | 0.0624 |
| H21R | 0.0681 | 0.0807 | – | – | 0.0644 | 0.0776 | 0.0651 | 0.0552 | 0.0523 | 0.0368 | 0.0561 | 0.0506 | 0.0713 | 0.0797 | 0.0482 | – | – | – |
| L22N | 0.0411 | 0.046 | 0.0561 | 0.0414 | 0.056 | – | 0.0376 | – | 0.0415 | – | 0.0537 | 0.0314 | – | 0.0515 | 0.0489 | – | – | – |
| T23H | 0.0681 | 0.0723 | – | 0.0661 | 0.075 | 0.0594 | 0.0673 | – | 0.0676 | 0.0531 | 0.0622 | 0.0531 | 0.0616 | 0.0611 | – | – | – | 0.0536 |
| T23V | 0.0987 | 0.0884 | – | 0.0756 | 0.0704 | 0.0747 | 0.0684 | 0.0666 | 0.0759 | – | 0.064 | 0.0578 | 0.0684 | 0.0696 | – | 0.0688 | – | – |
| N24M | 0.0462 | – | – | 0.0691 | 0.0691 | 0.0341 | 0.0754 | 0.0641 | 0.0664 | – | 0.0572 | – | 0.05 | 0.0755 | – | 0.0645 | 0.0809 | – |
| E25D | 0.0652 | 0.0826 | – | – | 0.0756 | 0.0675 | 0.0649 | 0.0651 | 0.0539 | 0.0581 | 0.0452 | 0.0435 | 0.0605 | 0.0674 | 0.0625 | 0.0601 | 0.0322 | – |
| E25L | 0.0752 | 0.0677 | 0.0409 | 0.0569 | 0.0703 | 0.0746 | 0.0666 | 0.0623 | 0.0695 | – | 0.0735 | 0.0614 | 0.0854 | 0.0676 | – | 0.0604 | 0.0757 | 0.0603 |
| E25V | 0.0719 | 0.0783 | 0.0738 | 0.073 | – | 0.072 | 0.0533 | 0.0691 | 0.0682 | 0.0644 | 0.114 | 0.0556 | 0.0649 | 0.0593 | – | 0.0728 | 0.0694 | – |
| S26D | 0.0468 | 0.0813 | – | 0.0679 | – | 0.059 | 0.0677 | 0.0407 | 0.0646 | 0.0433 | 0.0545 | 0.0618 | 0.06 | 0.0753 | 0.0611 | – | 0.0581 | 0.0497 |
| D27L | 0.0616 | 0.0643 | 0.0628 | 0.0782 | 0.0669 | 0.0636 | 0.0552 | 0.0684 | 0.055 | – | 0.0921 | 0.0434 | 0.0542 | 0.0642 | 0.0635 | 0.0605 | – | 0.0543 |
| G28F | 0.053 | 0.0768 | 0.0629 | – | 0.0541 | – | 0.0782 | 0.0676 | 0.0592 | 0.0697 | 0.0066 | – | 0.0749 | 0.0623 | – | – | – | – |
| G28K | 0.0614 | 0.059 | – | – | 0.0684 | 0.0541 | 0.0513 | – | 0.0578 | 0.0554 | 0.0606 | – | 0.0743 | 0.0574 | – | 0.0686 | 0.0334 | – |
| H29K | 0.0613 | 0.0657 | – | – | – | 0.035 | – | – | – | – | 0.0298 | – | – | – | 0.0641 | – | – | – |
| H29S | 0.0749 | 0.0875 | – | 0.0762 | 0.0744 | – | 0.0688 | 0.0663 | 0.0657 | – | 0.0514 | 0.046 | 0.0611 | 0.0624 | – | 0.0622 | 0.077 | – |
| H29V | 0.074 | 0.0993 | 0.0663 | 0.0674 | 0.101 | 0.0066 | 0.0633 | 0.0641 | 0.0422 | 0.068 | 0.0612 | – | 0.0721 | 0.0591 | – | 0.0628 | – | – |
| T30N | 0.116 | 0.0711 | – | 0.0647 | – | 0.071 | 0.0554 | 0.0787 | 0.0666 | 0.0719 | 0.0593 | – | – | 0.0646 | 0.0667 | – | 0.0448 | – |
